Here are results for 27 molecules from the antibiotic and cytotoxicity screens of Wong et al. (2023).

The test system of assay [1] is HSkMC (human skeletal muscle cells). Kind of assay: cytotoxicity call (relative viability < 0.9). The conditions noted are these: 10 µM.
The test system of assay [2] is HepG2. Kind of assay: cytotoxicity call (relative viability < 0.9). The note with it: 10 µM.
Assay [3] has as its system S. aureus RN4220. The assay is described as follows: growth inhibition call (relative growth <= 0.2). The conditions noted are these: 50 µM.

This is one part of the list.

In the case of `c1cnc(N2CC[N+]3(CCCC3)CC2)nc1`, the cytotoxicity call in assay [1] and in assay [2] was “inactive” throughout. In assay [3], the growth inhibition call was “inactive”.

For `Cc1ccc(S(=O)(=O)N2C[C@H](O)COC[C@H]3O[C@H](CC(=O)N[C@H]4CCN(Cc5ccccc5)C4)CC[C@@H]32)cc1`, the cytotoxicity call in assay [1] and in assay [2] was “inactive” in each case. In addition, the growth inhibition call in assay [3] was “inactive”.

Take `C[C@@H]1CN([C@@H](C)CO)C(=O)c2cc(NC(=O)CCCN(C)C)ccc2O[C@@H](C)CCCCO[C@@H]1CN(C)S(=O)(=O)c1cn(C)cn1`: the cytotoxicity call in assay [1] and in assay [2] was “inactive” throughout. The growth inhibition call in assay [3] is “inactive”.

On to `O=C1COC[C@@H](c2ccccc2)N1`, for which the cytotoxicity call in assay [1] and in assay [2] was “inactive” in each case. Further, in assay [3], the growth inhibition call was “inactive”.

With `C[C@H]1CN([C@@H](C)CO)C(=O)c2cccc(NS(=O)(=O)c3cn(C)cn3)c2O[C@H]1CN(C)Cc1ccc2c(c1)OCO2`, the cytotoxicity call in assay [1] and in assay [2] was “inactive” each time. Besides, in assay [3], the growth inhibition call is “inactive”.

As for `O=C(O)CCCNC(=O)c1cccnc1`, the cytotoxicity call in assay [1] and in assay [2] was “inactive” in each case. Further, in assay [3], the growth inhibition call is “inactive”.

Regarding `COc1ccc(S(=O)(=O)Nc2ccc3c(c2)CC(=O)N([C@@H](C)CO)C[C@H](C)[C@@H](CN(C)S(=O)(=O)c2ccc(OC)cc2)O3)cc1`, the cytotoxicity call in assay [1] and in assay [2] was “inactive” throughout. Also, the growth inhibition call in assay [3] was “inactive”.

As for `Nc1nc(-c2ccccc2)cc[n+]1[O-]`, the cytotoxicity call in assay [1] and in assay [2] was “inactive” throughout. For the same molecule, the growth inhibition call in assay [3] is “inactive”.

On to `CC(C)NCC(O)c1ccc(O)c(O)c1.Cl` (stereo unspecified), for which the cytotoxicity call in assay [1] was “inactive”. In addition, in assay [2], the cytotoxicity call was “active”. Further, the growth inhibition call in assay [3] is “inactive”.

In the case of `C[C@H]1CN([C@@H](C)CO)C(=O)Cc2cc(NC(=O)NC3CCCCC3)ccc2O[C@H]1CN(C)C(=O)Nc1ccc(C(F)(F)F)cc1`, the cytotoxicity call in assay [1] and in assay [2] was “inactive” each time. Also, the growth inhibition call in assay [3] was “inactive”.

Regarding `Cl.O=C1NCC2(CCN(CCc3ccccc3)CC2)O1`, the cytotoxicity call in assay [1] and in assay [2] was “inactive” in each case. Also, the growth inhibition call in assay [3] is “inactive”.

Consider `C[C@@H]1CN([C@@H](C)CO)C(=O)Cc2cc(NS(C)(=O)=O)ccc2O[C@H]1CN(C)S(=O)(=O)c1cccs1`, for which the cytotoxicity call in assay [1] and in assay [2] was “inactive” throughout. Also, the growth inhibition call in assay [3] was “inactive”.

In the case of `C[C@@H]1CCCCO[C@H](CN(C)C(=O)Nc2cccc3ccccc23)[C@H](C)CN([C@@H](C)CO)C(=O)c2cc(NC(=O)C3CCCCC3)ccc2O1`, the cytotoxicity call in assay [1] and in assay [2] was “inactive” in each case. Moreover, the growth inhibition call in assay [3] is “inactive”.

As for `C[C@H](CO)N1C[C@H](C)[C@H](CN(C)S(=O)(=O)c2cn(C)cn2)Oc2c(NC(=O)Nc3ccc(F)cc3)cccc2C1=O`, the cytotoxicity call in assay [1] and in assay [2] was “inactive” in each case. Besides, in assay [3], the growth inhibition call is “inactive”.

Regarding `C[C@@H]1CN([C@@H](C)CO)C(=O)c2cc(NC(=O)Cn3cnnn3)ccc2O[C@@H]1CN(C)Cc1ccc(C(=O)Nc2ccccc2N)cc1`, the cytotoxicity call in assay [1] and in assay [2] was “inactive” each time. The growth inhibition call in assay [3] was “inactive”.

Take `C[C@@H]1CCCCO[C@@H](CN(C)C(=O)Nc2ccccc2)[C@@H](C)CN([C@@H](C)CO)C(=O)c2cc(NC(=O)c3ccccc3)ccc2O1`: the cytotoxicity call in assay [1] and in assay [2] was “inactive” in each case. Further, the growth inhibition call in assay [3] was “inactive”.

As for `CCOC(=O)C1=C(N)Oc2ccc(Br)cc2[C@H]1[C@H](C#N)C(=O)OCC`, the cytotoxicity call in assay [1] and in assay [2] was “inactive” throughout. In assay [3], the growth inhibition call was “inactive”.

`C[C@@H]1CCCCO[C@H](CN(C)C(=O)Nc2ccc(C(F)(F)F)cc2)[C@H](C)CN([C@@H](C)CO)C(=O)c2cc(NS(=O)(=O)c3cn(C)cn3)ccc2O1`: the cytotoxicity call in assay [1] and in assay [2] was “inactive” throughout. Besides, in assay [3], the growth inhibition call was “inactive”.

`C[C@H](CO)N1C[C@H](C)[C@H](CN(C)S(=O)(=O)c2ccc(Cl)cc2)Oc2c(NS(=O)(=O)c3cn(C)cn3)cccc2C1=O`: the cytotoxicity call in assay [1] and in assay [2] was “inactive” each time. For the same molecule, in assay [3], the growth inhibition call was “inactive”.

Regarding `COc1ccc(CN(C)C[C@@H]2OCCCC[C@@H](C)Oc3ccc(NC(=O)Nc4ccccc4)cc3C(=O)N([C@H](C)CO)C[C@@H]2C)cc1`, the cytotoxicity call in assay [1] and in assay [2] was “inactive” each time. The growth inhibition call in assay [3] is “inactive”.

Turning to `COc1ccc(C2=C(N)C(=O)NC2=O)cc1OC`, the cytotoxicity call in assay [1] and in assay [2] was “inactive” throughout. Besides, the growth inhibition call in assay [3] was “inactive”.

As for `CCOCC(=O)Nc1cc(C)on1`, the cytotoxicity call in assay [1] and in assay [2] was “inactive” throughout. Moreover, the growth inhibition call in assay [3] is “inactive”.

As for `C[C@@H]1CCCCO[C@@H](CN(C)S(=O)(=O)c2ccc(Cl)cc2)[C@@H](C)CN([C@H](C)CO)C(=O)c2cc(NC(=O)c3ccccc3)ccc2O1`, the cytotoxicity call in assay [1] and in assay [2] was “inactive” throughout. The growth inhibition call in assay [3] was “inactive”.

On to `Cc1ccc(F)c(S(=O)(=O)N2[C@@H]3CC[C@@H](C3)[C@H]2c2nc3cccc(OCc4ccc(F)cc4)c3[nH]2)c1`, for which the cytotoxicity call in assay [1] is “inactive”. Also, in assay [2], the cytotoxicity call was “active”. Moreover, the growth inhibition call in assay [3] is “inactive”.

As to `C[C@H](CO)N1C[C@H](C)[C@@H](CN(C)Cc2ccc(-c3ccccc3)cc2)Oc2c(NC(=O)C3CCOCC3)cccc2C1=O`, the cytotoxicity call in assay [1] and in assay [2] was “inactive” each time. Also, in assay [3], the growth inhibition call was “inactive”.

On to `CC(C)NC(=O)Nc1ccc2c(c1)C(=O)N([C@H](C)CO)C[C@H](C)[C@@H](CN(C)Cc1ccc(C(F)(F)F)cc1)OCCCC[C@@H](C)O2`, for which the cytotoxicity call in assay [1] and in assay [2] was “inactive” in each case. For the same molecule, in assay [3], the growth inhibition call is “inactive”.

Turning to `CO[C@H]1O[C@H](CO)[C@@H](OC(=O)Nc2ccc(Oc3ccccc3)cc2)[C@H](OC(=O)Nc2ccccc2)[C@H]1OC(=O)Nc1ccccc1`, the cytotoxicity call in assay [1] and in assay [2] was “inactive” each time. Also, in assay [3], the growth inhibition call is “inactive”.
